# Assay results from the supplement of paper PMC3334620.
# In all, about 33,000 sequences were measured (“E-score (-0.5 to 0.5)”: median about -0.017, highest 2% from about 0.3 on). This is one part of the list.
# Target: T1, Sut1 (UniProt P53032)
# T1 sequence: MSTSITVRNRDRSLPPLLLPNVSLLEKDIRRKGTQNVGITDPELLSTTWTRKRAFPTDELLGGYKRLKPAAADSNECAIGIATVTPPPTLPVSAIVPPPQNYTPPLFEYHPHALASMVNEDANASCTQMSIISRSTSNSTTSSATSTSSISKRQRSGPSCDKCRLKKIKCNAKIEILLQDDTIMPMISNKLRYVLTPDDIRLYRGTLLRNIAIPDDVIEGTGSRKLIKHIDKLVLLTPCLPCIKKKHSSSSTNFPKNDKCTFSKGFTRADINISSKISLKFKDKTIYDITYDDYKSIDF
# Experiment: PBM E-score (8-mer binding enrichment) (E-score (-0.5 to 0.5)); higher = stronger / more preferred TF binding; most listed sequences are background and not binding sites
# Settings: protein concentration: 200 nM; construct: GST-full length
# How it was run: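 Masliner-normalised scans of fluorescent anti-GST signal were the basis for scoring. That signal came from GST-tagged yeast transcription factors applied at about 100-200 nM to double-stranded universal all-10-mer Agilent arrays on fresh or once-stripped slides. Each ungapped eight-base word, pooled with its reverse complement, received an E-score from the Universal PBM Analysis Suite.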
row,Sequence,PBM E-score
1,GCGGGGGA,-0.222
2,GGTCGCAA,-0.00335
3,CCATCACC,-0.153
4,ACACTTCC,-0.0188
5,ACCGTGTC,-0.0975
6,CCAAGGCA,-0.0581
7,GACCCAAC,-0.0309
8,CTCCGGCA,0.423
9,GGGTCGAC,-0.0252
10,AATGTCGC,-0.177
11,CTCCTTTC,0.0215
12,CAGCGTAC,-0.109
13,AAGCTTTA,0.0497
14,ACTGTAGA,0.0876
15,CAGGTCGC,-0.341
16,CGGGGTAC,0.232
17,ATTTCTCA,0.179
18,TCAAATAA,0.187
19,AGGGTATA,0.0805
20,ATGGGTTC,-0.3
21,GACAGATC,0.0841
22,ACAAAACC,0.262
23,CATTTATC,0.158
24,AACTCCCT,-0.0108
25,GAGGGTAA,-0.107

row,Sequence,PBM E-score
1,ACCTCGGG,-0.174
2,GTTTTATA,0.221
3,ACGATTCT,0.168
4,ACTCAATG,0.104
5,GACGACCC,-0.229
6,CTGCTCTC,-0.104
7,GCATCTAC,-0.0256
8,CGCCGTAC,-0.0681
9,CAGCTTTC,-0.183
10,GCGGGGCA,-0.264
11,AACAGAAG,0.23
12,CAACGCCG,-0.123
13,CCACAAGC,-0.29
14,GACTCAGC,-0.0752
15,ACTCAGTA,0.088
16,AAGGCACC,-0.0888
17,CTACTCAA,0.226
18,CCGTGTAA,0.0974
19,ACGTGTCA,-0.113
20,CTACGCGC,-0.12
21,GCGATTGA,-0.0384
22,TAAGGCCA,0.0143
23,GCGGTGAC,-0.156
24,TCTGCGAA,-0.131
25,ACAGTTCT,0.123

row,Sequence,PBM E-score
1,CGAGCAAG,-0.157
2,ACACGTTG,-0.218
3,ACATCCCC,-0.126
4,AGAAACGA,0.12
5,ATGCCCCG,-0.222
6,CCCCCAAA,-0.252
7,CCTCTGAG,-0.0249
8,TACCGCAA,0.0263
9,ACGGTGAG,-0.143
10,CCATGGTA,-0.0897
11,CATCCTGA,0.00271
12,GAGATCGC,-0.0109
13,AGAGGGCG,-0.144
14,GACCTGAC,-0.207
15,ACAGTGAA,0.0332
16,CCCAGTAG,-0.131
17,GGCATAAA,0.123
18,AAAGACAG,0.205
19,GTAGGAGA,-0.0911
20,GAGGCCCA,-0.267
21,AGCCCCTA,-0.263
22,TGAACTAA,0.0997
23,AATGTACC,-0.0198
24,CCTACTCA,0.021
25,CGTTTCCC,0.093

row,Sequence,PBM E-score
1,AAGTTATC,0.155
2,CTCGAGAG,-0.12
3,GGATAACC,0.0177
4,CGCACAGA,-0.279
5,CGCGACAG,-0.283
6,CTCCGTAA,0.328
7,CCCATCTC,-0.18
8,AAGCGGAG,0.169
9,CGATTTCA,0.0969
10,CAGGACTA,-0.0566
11,CAACTATG,0.0519
12,CCCTTGAC,-0.13
13,CTCGTTTA,-0.00379
14,CGTTTCCA,0.0743
15,AAGATCTT,0.158
16,CTCTGCAG,-0.203
17,CTTTTTAA,0.00676
18,CGGCGTCA,-0.0663
19,ACAAGCGG,0.133
20,ATCATGAC,0.0515
21,ATGAGAAC,0.0799
22,ACCGTAAT,0.0377
23,GATGTCAC,-0.0111
24,AATAGACC,0.0391
25,CGGAACTC,0.247

row,Sequence,PBM E-score
1,CCAGCCGA,-0.242
2,ACTATCAA,0.233
3,CACCGTAC,0.0478
4,AAATCCTG,0.0973
5,TCTAATCA,0.145
6,CATGCTTA,0.0253
7,AAGCGTCT,-0.272
8,CTACGTAG,0.0263
9,GGATTTTA,0.16
10,CAATGACG,-0.0145
11,TATTATCA,0.277
12,AGGCCTTA,-0.127
13,ATGTAAGC,0.0518
14,CCTAAAGA,0.0405
15,GAGATTCA,0.135
16,TGGAAACA,-0.015
17,ACGAACAC,-0.125
18,AGTGGCTA,-0.0286
19,GTAATCGA,0.0961
20,AATCTGCC,0.0643
21,GTCTCCGA,0.338
22,ACTGGCCA,-0.0799
23,AAATTAAA,0.333
24,ACGAAACA,0.087
25,GTCTGCCA,-0.131

row,Sequence,PBM E-score
1,AACGTCTT,-0.113
2,GTACCCTA,0.0342
3,GCATCAGA,0.0373
4,TATAAACA,0.297
5,TATGTGCA,-0.0445
6,CGCTGACG,-0.331
7,GCCGCTCC,-0.14
8,ACACCTGT,-0.0292
9,CAGTTTGA,0.143
10,CGCTGCAA,0.0457
11,AAGGCGCT,-0.00133
12,CCCCGGAG,0.454
13,AATTCTCT,-0.133
14,GTCACAAA,-0.00567
15,CACTGACG,-0.267
16,GATAATTA,0.216
17,CGCTCAAA,0.0551
18,CCGTTCTC,0.0465
19,CGCAGCCG,-0.106
20,AACTGCTG,0.0352
21,AGAGGGTA,-0.223
22,AAATAGGA,0.0958
23,ATCCAATA,0.142
24,AGTGTACG,-0.159
25,AGCTACCG,-0.177

row,Sequence,PBM E-score
1,CGTTAGCC,0.0323
2,TAAGCGGA,0.16
3,ACGCCACT,-0.169
4,CCCAACCC,-0.0724
5,CAGAACTA,-0.0207
6,GTTGAGCA,0.0202
7,GAAAGGAC,0.154
8,GACAGCTC,-0.174
9,GATTGTGA,0.186
10,TACTCTCA,0.0648
11,CGAAGCGC,-0.0528
12,CGCCGGTC,-0.0721
13,CCGAGCCC,-0.0973
14,ATAGTTAA,0.203
15,AGTTTGCC,0.0495
16,AAAATTGA,0.123
17,CTACTGTA,0.0123
18,TGGTCTAA,-0.0333
19,CCCTACCA,-0.0844
20,GACAGGCC,-0.158
21,CGAAAGGC,0.00459
22,GCGGCAGA,-0.213
